# From the supplement of paper PMC11417369
# This is one part of the list.
# System: PfHDP1 homeodomain (GST-tagged)
# Test: gcPBM binding intensity (ln(normalized median fluorescence intensity)); higher = stronger DNA binding
# Procedure, shortened: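 Using an Agilent 4 × 180k array, primer-extended double-stranded 36-bp intergenic genomic probes and negative controls were exposed for 1 h to GST-fused P. falciparum DNA-binding domains expressed in E. coli. Binding was carried out in 1× PBS with 1% milk, 0.2 mg/ml BSA, 0.5% salmon testes DNA and 0.03% Triton X-100, and protein was detected with Alexa488 anti-GST antibody and a 488 nm scan. Binding intensity is the highest Masliner-normalised natural-log median intensity across replicate spots of either probe orientation.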
row,Sequence,gcPBM binding intensity (ln)
1,TCAACAAATAAACTTTGTACATATATACAAAATATA [XGTACX_site4447],6.27
2,TATGTATTAAATTTTACACACATGATTCTCTATATG [CACACA_site8720],7.09
3,TATACATATTATATATGTACACATATTATATGTATA [XGTACX_site5851],6.39
4,TAACATGATATATAATGTACATATAAGATATTTATA [XGTACX_site4383],6.72
5,TTTAAAAAAAAAAAAAAAAATTAAATGAATTATTAA [CACACA_negctrl_site1121],5.74
6,ATGAATTATATATTATGTACATATAATTAAAATATA [XGTACX_site7140],6.32
7,ATACAAAAAAGAAGGACACACAGAAGTAACATGTTA [CACACA_site3074],6.79
8,CGTGGGAGCGGACACACACACACACCCATATATATA [CACACA_site4340],6.78
9,AAAAAAATATATATATATATATATATATATATATAT [TGCATGCA_negctrl_site7],9.41
10,AAATATAATAATATATGTACATATATATATATATAT [XGTACX_site6980],9.24
11,ATATTTTGTAATATTTGTACATATATTATACATATA [XGTACX_site963],6.32
12,AATAATGTATAATGATGTACAAAAAAGGAAGACATA [XGTACX_site2474],7.43
13,TTTTTTTTGCGTACAGTGCAAATTTATTTACTATTC,8.98
14,AAAAAAAAAAAAAAAAAAAAAAAAAAAAAAAAAAAT [CACACA_negctrl_site882],7.45
15,AAATTAAATAAATTTACACACTAAAAGTTACCTATA [CACACA_site6623],6.03
16,TTTGTTATTTATTAGTGTACAAAAAAGCATTTCAAA [XGTACX_site8729],6.39
17,TATGAAAATTAAGTTTGTACACAAGTGGAAAAAAAA [XGTACX_site6129],6.54
18,TACATTTATAATAATACACACATAAATTTACATTTT [CACACA_site3463],6.73
19,ATATAAAGAAATTAATTTTTCAACAATAAAAATATA [CACACA_negctrl_site1262],6.16
20,TTAAAAGATATTACATGTACATATTCAATATATGTA [XGTACX_site5895],6.13
21,ACAAATAAATAAAAATGTACAAATGAATACATCTTA [XGTACX_site3780],5.94
22,TTTTTTTAAAAAAACAAAAAAAAAAAAAATATAAAA [TGCATGCA_negctrl_site511],5.88

row,Sequence,gcPBM binding intensity (ln)
1,TACATCGGTATATAAACACACAACAAAAATGCTTAC [CACACA_site5983],6.62
2,AAAATAATTAAAAAAAGTACTCGTAATATAAATATA [XGTACX_site4967],6.52
3,AGGTGTATCATAAAATGTACATACATACATACATAA [XGTACX_site4479],6.23
4,TATTATTATTTTTTATGTACTAACGACAAAAATATT [XGTACX_site252],6.27
5,TTGTAATTCATTCAAATATAAAATAAATAAATATGA [CACACA_negctrl_site349],6.04
6,AAAATGTGCTTTTCAGTGCAATTTTTTTTGTAATAA [GTGCAC_site9566],9.37
7,TATGTAAAAAGAGAAAAAAAAAAGAACGATAATTTC [CACACA_negctrl_site946],5.96
8,ATATAAGAATTTAAGAGTACATTCACTTCAAATTTA [XGTACX_site2115],5.83
9,TATTCTATAAATATATTTTTTTAATTTTTTATTTTA [CACACA_negctrl_site307],6.27
10,AAATTTAATTTTATATCACACATTAAATTTTAATGG [CACACA_site4251],6.49
11,AAAAAAAAAAAAAAAGGTACAGTAAAAAATTCCTCT [XGTACX_site5947],6.46
12,ATATAATATATTTTCACACATATTTTATGATGATAA [CACACA_site5614],6.45
13,ATAACATAACATAATACACACATATAAAAAAGAAAT [CACACA_site3028],7.34
14,TTTTTTTTTTTTTTTTTTTTACGATATATTTTAAAA [XGTACX_negctrl_site401],6.49
15,TTTTTACTTATTTATTATGTACAATTTCTTCTTTCT [CACACA_negctrl_site264],6.15
16,TAGATCATAACAATTGCACACATTTGCATTTATATT [CACACA_site1562],10.1
17,TTCAAAAAATATATCTGTACAAATTATGTAGATGAA [XGTACX_site5522],6.5
18,AAGATAAAAATATGCACACATATATATATATATATA [CACACA_site404],9.91
19,TAATTAAGAATATATAGTACATAGTTGAAAAACTTT [XGTACX_site6359],6.08
20,AATAGTTAAATACATACATGCATTCATATAATATAT [TGCATGCA_site433],6.53
21,AACGAAAACACTACGTGTACCAAACGTCCTACCAAC [XGTACX_site257],6.35
22,AATGTACGCATATACACACACATAAATAGATACGTA [CACACA_site3406],6.59

row,Sequence,gcPBM binding intensity (ln)
1,GACCCCATATACATATGTACATACATAATATATATA [XGTACX_site1817],7.25
2,TTTTTATAACAGCTTAGTACATATAAGAATTCTTGC [XGTACX_site5890],6.53
3,CCTTTTTATTTTTGTAGTACTACATATACATATCTG [XGTACX_site7791],7.15
4,AAAAAAAAAAAAAATAAATAAATAAATAAATATATA [GTGCAC_negctrl_site382],6.13
5,TATATATAAAAAAAAAGTACATATAATATAATATTT [XGTACX_site7902],6.27
6,GGTGTTTTTCACAGATGTACACAAATAAAAAAGAAA [XGTACX_site4454],7.11
7,AAATGGACAGTATAAAAATGGAGAATATAAAAATTT [CACACA_negctrl_site889],6.53
8,TATTCAAAGAAAAACTGTACGTGTAGCAAACGTCAT [XGTACX_site7713],6.94
9,ATATTAAAAAAATATAAACACACAAAAAAAAAATAT [CACACA_site8283],6.95
10,AGTATTTTGTTTATCACACATATTGGAATTTTCAAT [CACACA_site4686],6.65
11,AAAATTATACACACACGTACATATAAATAGAAATAT [XGTACX_site1753],7.07
12,AAAATAATTCAATGTAGTACAATACAAATTGAGAGA [XGTACX_site5991],6.46
13,TTTGTTGGTATGGTTACACACATTTAGGAAATAAAA [CACACA_site1411],6.51
14,TCTTATAAATTAAATATAAAAAAAAAAAAAAAAAAA [XGTACX_negctrl_site77],6.22
15,ATGCAATAATAATGGAGTACATATTAATATTGATCA [XGTACX_site2312],6.89
16,AAAAAATATATTAAGGCACACACATACATATATATA [CACACA_site9239],6.98
17,CCTTTTGGATGAAAGTGTACAGGTGAGAAAAATTCC [XGTACX_site3358],6.48
18,AAAACAAATAGACACGCACACAAAAAAAAAAAAAAA [CACACA_site801],6.44
19,TTAATTTCGAATTATTGTACATTAATATATCTACAG [XGTACX_site3314],6.41
20,GAATAAAAAAAAAAAAAAATTTATTTTATAATAAAA [CACACA_negctrl_site1514],5.82
21,ATATATATATATATATGTACATAAATATAAATTTAA [XGTACX_site8715],9.42
22,TCGAATATCTTATAGGTGCATCATAAATACATATGT,9.58

row,Sequence,gcPBM binding intensity (ln)
1,AATGTAAAGAACAAAACATGCAACTAGTTTACTTTT [TGCATGCA_site841],6.61
2,TAATTCTTTATTTTTCGTACGTAAAACAAAAAATAT [XGTACX_site862],6.28
3,TAAGTATATAAAATTACACACTATTTTTTTTCAAGT [CACACA_site1792],6.06
4,TAGAAAAAAGATAGCACACACGGCCCAATATATATA [CACACA_site5354],6.82
5,ATTCTTAAATGTGGTTGTACATATTATCACCTTTAA [XGTACX_site8188],6.3
6,TTTTTAATTTTATATACACACATAAAAGATATGAAG [CACACA_site7470],6.63
7,CGCAAAACAATGATACGTACATATATATATATATAT [XGTACX_site5883],9.24
8,ATATTCTCTTAAATATGTACGTATGTATATATATAT [XGTACX_site5885],8.87
9,ATATTTATTTATATCATACACACTAATATGTATATT [CACACA_site7576],6.55
10,TTTTAAAACAATGAGATTCCTTTCTTTTTTTCTTTT [CACACA_negctrl_site1320],5.64
11,CTTAATGATAAATACATACACACAAAAAATAATATA [CACACA_site2577],6.68
12,TATCCCTTAGAATACACACCCATATGAGGGTGAACT [CACACA_site5610],6.2
13,AAGAAAATGTAGAATTAGAAATAAATGAAGAAATGA [TGCATGCA_negctrl_site548],6.54
14,TATATGTTTAATTTCACACACAAATATACATTTTAA [CACACA_site4171],6.48
15,CATTAGCATTTTATTACACACAATAAATTAGAAGTA [CACACA_site7837],6.75
16,ACACATACAACGTGGTGTACAAATAATTATAATCAA [XGTACX_site2287],6.8
17,AATCTTTGTAATAAAAGTACATTAATTTTATTAATA [XGTACX_site8325],5.97
18,TTTTAAATACTTTATTGTACATTATATATATATATA [XGTACX_site7021],8.85
19,TAAGTATATATATTTACACACATTTGTTTTTTTTTA [CACACA_site3784],6.56
20,AAAAAAAAAAAAAAAAGTACATATAATAAATAATGA [XGTACX_site7931],6.62
21,TATATCTTAATATTTACACACATGCGCACCCATAAA [CACACA_site5349],7.52
22,ATAAATGAACAAGTGGCACACACACCGTATAACTAA [CACACA_site9047],6.73
